This note sets out measurements from PubChem BioAssay AID360 (National Center for Advancing Translational Sciences (NCATS), 2006).

Among all 48,000 compounds or so, about 550 (1.1%) were called active. Inconclusive results (about 4%) are left out. No stated cut-off is given here; in the data, active means potency below about 15 µM; inconclusive means mostly about 16 µM to 33 µM; inactive means weaker than that. This is one part of the list. A value given as a limit tells only on which side of the number the result lay.
Potency means the concentration at half of the fitted maximal effect.

Sequence of UniProt P04062 (P04062 whole entry, looked up): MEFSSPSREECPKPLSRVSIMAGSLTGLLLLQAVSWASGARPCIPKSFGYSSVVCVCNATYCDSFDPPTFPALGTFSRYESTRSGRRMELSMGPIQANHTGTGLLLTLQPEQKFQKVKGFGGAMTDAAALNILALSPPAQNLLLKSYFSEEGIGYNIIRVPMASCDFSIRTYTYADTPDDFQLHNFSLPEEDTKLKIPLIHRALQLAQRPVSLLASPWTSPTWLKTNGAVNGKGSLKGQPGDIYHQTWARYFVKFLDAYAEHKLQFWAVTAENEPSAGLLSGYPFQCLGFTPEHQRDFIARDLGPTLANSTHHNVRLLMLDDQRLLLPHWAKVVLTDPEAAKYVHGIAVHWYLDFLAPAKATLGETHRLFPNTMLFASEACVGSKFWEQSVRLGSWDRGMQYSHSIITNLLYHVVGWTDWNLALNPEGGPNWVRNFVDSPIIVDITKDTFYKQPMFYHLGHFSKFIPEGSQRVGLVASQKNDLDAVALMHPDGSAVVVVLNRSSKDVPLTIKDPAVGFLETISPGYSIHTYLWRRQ

The experiment concerns the target Lysosomal acid glucosylceramidase (Homo sapiens) (UniProt P04062). Kind of experiment: Glucocerebrosidase.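 Further: the screen sought inhibitors.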 The conditions noted are these: purified enzyme, resorufin glucoside fluorescence (screen aimed at inhibitors), 20 min. Put shortly:
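Wild-type enzyme at 0.2 nM final in 50mM citric acid/KH2PO4, 10mM sodium taurocholate, 0.01% tween-20, pH 5.9, with resorufin beta-D-glucopyranoside at 30 uM final. Compounds titrated, 20 min at RT, red fluorescence read; AC50 from titration.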
On to `CCN(CC)CCNC(=O)c1c(O)c2c([nH]c1=O)CCCC2`, for which the Potency was inactive: > 76.9 µM.
As to `Cc1noc(C)c1COC(=O)c1cc2c(C)nn(-c3ccc(F)cc3)c2s1`, the Potency is inactive: > 76.9 µM.
For `O=C1c2ccccc2-c2nccnc21`, the Potency is inactive: > 76.9 µM.
Regarding `Cc1noc(C)c1COC(=O)COc1ccc2c(C)cc(=O)oc2c1`, the Potency is inactive: > 76.9 µM.
`COC(=O)Cc1ccc(NC(=O)c2ccc(Br)o2)cc1`: the Potency was inactive: > 76.9 µM.
Then `O=C(Nc1cc2nn(-c3ccccc3)nc2cc1Cl)c1ccco1`, with inactive: > 76.9 µM.
With `O=C(COc1cccc(C(F)(F)F)c1)NCCCN1CCCC1=O`, the Potency was inactive: > 76.9 µM.
Turning to `O=C(COc1ncnc2ccccc12)c1ccc2c(c1)OCCO2`, the Potency was inactive: > 76.9 µM.
The result for `Cc1ccc(S(=O)(=O)N(C)Cc2ccc(-c3nnco3)cc2)cc1` reads inactive: > 76.9 µM.
As for `COc1cc2c(cc1OC)C(C(=O)O)C(c1cc(Br)c(O)c(OC)c1)N(C)C2=O` (centres undefined), the Potency is inactive: > 76.9 µM.
Turning to `COc1ccc(C(=O)NC(C)c2nc3ccccc3n2C)cc1OC` (centres undefined), the Potency is inactive: > 76.9 µM.
On to `Cc1cccc(NC(=O)Cn2cccc2)c1`, for which the Potency is inactive: > 76.9 µM.
For the compound `Cc1cc(Cl)c(S(=O)(=O)N2CCN(c3ccc(F)cc3)CC2)cc1OCC(N)=O`, the Potency is inactive: > 76.9 µM.
Take `O=C(COc1ccc2c(c1)OCO2)Nc1ccc2c(c1)oc1ccccc12`: the Potency is inactive: > 76.9 µM.
The result for `COc1ccccc1C1C(C#N)=C(N)Oc2cc(C)n(CCCn3ccnc3)c(=O)c21` (centres undefined) reads inactive: > 76.9 µM; that for `Cc1cc(C)n2nc(SC(C)C(=O)NCc3ccco3)nc2n1` (centres undefined), inactive: > 76.9 µM.
Turning to `Cc1cc(OCc2nnc(SCC(=O)OC3CCCCC3)o2)ccc1Cl`, the Potency is inactive: > 76.9 µM.
The result for `CCOC(=O)C1=C(N)Oc2cc(O)ccc2C1c1cccnc1` (centres undefined) reads inactive: > 76.9 µM.
Take `Cn1c(=O)n(CCc2ccccc2)c(=O)c2c1nc1n2CCCN1c1ccccc1`: the Potency is inactive: > 76.9 µM.
On to `O=C(OCc1cccs1)c1ccccc1NS(=O)(=O)c1ccc2c(c1)OCCO2`, for which the Potency is inactive: > 76.9 µM.
Take `Cc1cc(C)cc(N(C(=O)c2ccc3c(c2)OCO3)C2C=CS(=O)(=O)C2)c1` (centres undefined): the Potency entry is “inactive”.
Consider `Cc1ccc(S(=O)(=O)NC(=O)N2CCC(C)CC2)cc1`, for which the Potency is inactive: > 76.9 µM.
Then `O=C(CCSc1ccc(Cl)cc1)N1CCN(c2ncccn2)CC1`, with inactive: > 76.9 µM.
In the case of `O=C(CSc1nnc2c(Cl)cc(Cl)cn12)N1CCN(S(=O)(=O)c2ccccc2)CC1`, the Potency is inactive: > 76.9 µM.
`CCOC(=O)c1ccc(N=C2NC(=O)CS2)cc1`: the Potency is inactive: > 76.9 µM.
In the case of `O=C(OCC(=O)c1cccs1)C1=COCCO1`, the Potency is inactive: > 76.9 µM.
Take `S=C(c1ccc2c(c1)OCO2)N1CCCC1`: the Potency was inactive: > 76.9 µM.
In the case of `O=c1c2ccccc2oc2nc(C3CCCCC3)n(Cc3ccco3)c(=O)c12`, the Potency was inactive: > 76.9 µM.
As to `Cc1nc2ncnn2c(C)c1CCC(=O)NCc1ccco1`, the Potency was inactive: > 76.9 µM.
For `CC1(C)CC(=O)C2=C(C1)N=C1SCCC(=O)N1C2c1ccccc1` (centres undefined), the Potency is inactive: > 76.9 µM.
For the compound `COc1ccc(S(=O)(=O)N2C3CCC2CC(NC(=O)C2CC2)C3)cc1` (centres undefined), the Potency is inactive: > 76.9 µM.
Regarding `Cc1cc(C(=O)CSc2nc3ccc(Cl)cc3[nH]2)c(C)n1C`, the Potency is inactive: > 76.9 µM.
Regarding `Nc1cc(N)nc(SCC(=O)Nc2ccc3c(c2)OCCCO3)n1`, the Potency is inactive: > 76.9 µM.
As for `O=C(COC(=O)c1n[nH]c2ccccc12)NC(=O)NC12CC3CC(CC(C3)C1)C2`, the Potency is inactive: > 76.9 µM.
The result for `COc1ccc(CCn2c(N)cc(=O)[nH]c2=S)cc1OC` reads “inactive”; that for `CCOC(=O)N1CCN(C(=O)c2ccc3c(=O)n(Cc4ccccc4)c(=S)[nH]c3c2)CC1`, inactive: > 76.9 µM; that for `CCN1CCN(C(=O)CN(c2ccccc2C)S(C)(=O)=O)CC1`, inactive: > 76.9 µM.
Regarding `CCOC(=O)CSc1nnc2c(n1)C1(C)CCC2C1(C)C` (centres undefined), the Potency was inactive: > 76.9 µM.
As to `O=C(O)c1cc2ccccc2n1-c1ccccc1`, the Potency was inactive: > 76.9 µM.
Then `Cc1ccc(NC(=O)N2CCC(C(=O)NCc3ccc(F)cc3)CC2)cc1`, with inactive: > 76.9 µM; and `COc1ccc2c(=O)c3c(=O)n(Cc4ccco4)c(-c4cc(OC)c(OC)c(OC)c4)nc3oc2c1`, with inactive: > 76.9 µM.
Regarding `COc1cc(OC)cc(C(=O)NCc2n[nH]c(=S)n2-c2ccccc2OC)c1`, the Potency was inactive: > 76.9 µM.
With `COc1ccc(CC(=O)OCc2cc3ccccc3[nH]c2=O)cc1`, the Potency was inactive: > 76.9 µM.
The result for `O=C(CN1CCC(O)(c2ccc3c(c2)OCO3)CC1)OC1CCCCC1` reads inactive: > 76.9 µM; that for `CC(=O)Nc1cc(C(=O)N2CCOCC2)ccc1S(=O)(=O)c1ccc(C)cc1`, inactive: > 76.9 µM; that for `Fc1ccc2c(c1)[C@H]1OCC[C@H]1[C@@H](c1ccco1)N2`, inactive: > 76.9 µM.
As to `CN(C)S(=O)(=O)N1CCN(c2ccc(Cl)cc2)CC1`, the Potency was inactive: > 76.9 µM.
The result for `COc1ccc(C)cc1NC(=O)C1C2C=CC(C2)C1C(=O)O` (centres undefined) reads inactive: > 76.9 µM.
For `CCCCCCNS(=O)(=O)c1ccc(OC)c(OC)c1`, the Potency is inactive: > 76.9 µM.
Take `COC(=O)c1cc2c(s1)CS(=O)C2` (centres undefined): the Potency is inactive: > 76.9 µM.
For the compound `N#CCCN1CCN(CCC#N)CC1`, the Potency is inactive: > 76.9 µM.
As for `COc1ccc(C(=O)N2CCN(c3nnnn3-c3ccccc3)CC2)cc1OC`, the Potency is inactive: > 76.9 µM.
For the compound `O=C(CCCCn1c(=O)c2ccccc2n(CC(=O)NC2CCCC2)c1=O)NC1CCCC1`, the Potency was inactive: > 76.9 µM.
`Cc1c(Cl)cccc1N(CC(=O)O)S(C)(=O)=O`: the Potency was inactive: > 76.9 µM.
`CC(C)N=C(NC#N)SCc1ccccc1F`: the Potency is inactive: > 76.9 µM.
For `O=C(NCc1ccco1)c1noc2c1CCCC2`, the Potency was inactive: > 76.9 µM.
Then `CCOc1ccc(N(CC(=O)NC(C)(C)C)C(=O)c2ccco2)cc1`, with inactive: > 76.9 µM; and `CCCCCOC(=O)CSc1nc2c(c(=O)[nH]c(=O)n2C)n1CCc1ccccc1`, with inactive: > 76.9 µM; and `O=C(C1CC1)N1CCN(c2nc3ccccc3s2)CC1`, with inactive: > 76.9 µM.
